Results taken from paper PMC4336329 (PLoS ONE, 2015).
Hit rate of the full screen: of about 310,000 compounds, about 2,200 (0.71%) showed an effect of 50% or more. The effect is printed as a negative number. Some of the results follow.

molecular target: human ether-à-go-go-related gene (hERG) potassium channel (human, UniProt Q12809); experiment: primary screen, population patch clamp on CHO cells stably expressing hERG
Sequence (Q12809 whole entry, looked up): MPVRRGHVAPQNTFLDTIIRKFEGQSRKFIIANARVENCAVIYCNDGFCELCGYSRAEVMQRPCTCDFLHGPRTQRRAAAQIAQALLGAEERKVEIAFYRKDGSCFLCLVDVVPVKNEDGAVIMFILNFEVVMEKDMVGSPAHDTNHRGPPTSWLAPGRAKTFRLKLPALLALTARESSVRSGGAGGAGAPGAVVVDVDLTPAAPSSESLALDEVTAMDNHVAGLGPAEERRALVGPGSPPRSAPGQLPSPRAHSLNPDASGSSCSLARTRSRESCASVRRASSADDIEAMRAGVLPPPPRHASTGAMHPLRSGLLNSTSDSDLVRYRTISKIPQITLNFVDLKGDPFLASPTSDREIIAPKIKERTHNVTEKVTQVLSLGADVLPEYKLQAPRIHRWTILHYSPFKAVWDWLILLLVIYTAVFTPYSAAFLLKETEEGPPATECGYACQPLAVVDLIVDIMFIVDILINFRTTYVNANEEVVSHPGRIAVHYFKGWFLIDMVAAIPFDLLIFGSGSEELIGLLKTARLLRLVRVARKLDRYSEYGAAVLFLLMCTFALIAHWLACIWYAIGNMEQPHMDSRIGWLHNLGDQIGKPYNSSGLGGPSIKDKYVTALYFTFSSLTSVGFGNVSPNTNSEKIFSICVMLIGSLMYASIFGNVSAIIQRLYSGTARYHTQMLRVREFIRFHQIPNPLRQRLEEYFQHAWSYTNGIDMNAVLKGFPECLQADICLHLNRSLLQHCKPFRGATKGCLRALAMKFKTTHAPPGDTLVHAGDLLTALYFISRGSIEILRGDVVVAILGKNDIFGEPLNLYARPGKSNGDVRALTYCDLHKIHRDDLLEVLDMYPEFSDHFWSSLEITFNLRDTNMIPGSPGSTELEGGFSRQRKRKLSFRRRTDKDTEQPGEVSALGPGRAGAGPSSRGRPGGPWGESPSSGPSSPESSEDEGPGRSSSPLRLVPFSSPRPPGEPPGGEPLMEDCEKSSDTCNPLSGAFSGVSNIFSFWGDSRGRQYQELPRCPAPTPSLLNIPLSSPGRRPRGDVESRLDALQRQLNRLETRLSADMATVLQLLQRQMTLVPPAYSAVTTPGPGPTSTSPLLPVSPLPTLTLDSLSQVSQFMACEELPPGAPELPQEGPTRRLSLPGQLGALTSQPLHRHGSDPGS

Compound | hERG current change (%, negative = inhibition) at 1uM [%]
CCCCCCN1C2=NCCCN2c2ccccc21.Cl | -73.7
Cc1cccc(S(=O)(=O)c2c(C)cc(C)[nH]c2=O)c1 | 18.8
CS(=O)(=O)N(CC(=O)NC1CCCCCC1)Cc1ccccc1 | 13.1
Cc1c(C(=O)N2CCN(c3ccccc3F)CC2)oc2c1C(=O)CC(C)(C)C2 | 2.1
Cc1cnc2cc(Cl)ccc2c1SCC(=O)O | 9.4
CC(=O)c1cc(C#N)c(SCc2ccncc2)nc1C | -0.756
CN(C)N1C(N)=C(C#N)C(c2ccccc2F)C2=C1CC(C)(C)CC2=O (stereo not drawn) | 17.1
C=CCn1c(SCC(=O)Nc2ccc(OC)cc2)nc2ccccc2c1=O | 10.7
COC(=O)C1=C(c2cccc(OC)c2OC)C[C@@H]2CC[C@H]1N2C(=O)NC1CCCCC1 | 9.78
Cn1c(=O)c2c(nc(CN3CCC(C(N)=O)CC3)n2Cc2c(F)cccc2Cl)n(C)c1=O | 12.8
COc1ccc(NC(=O)Cn2cnc3c(cnn3C(C)(C)C)c2=O)cc1OC | 4.94
CN(C)c1ccc(NC(=O)C(=O)C2C(=O)Nc3ccccc32)cc1 (stereo not drawn) | 4.32
O=C1CN(C(=O)CN2CCOCC2)C(c2ccccc2)c2cc(Br)ccc2N1 (stereo not drawn) | -4.77
O=C(CSc1ncnc2scc(-c3ccccc3)c12)Nc1ccc(C(=O)O)cc1 | 13.6
CCNC(=O)Oc1ccc[nH]c1=O | 12.2
CC1(C(=O)N2CCC(CC3CC(c4cccc(Br)c4)=NO3)(C(=O)NCC3CCCCC3)CC2)CC1 (stereo not drawn) | 5.87
CCOc1cc(C2c3c(n[nH]c3C)C(=O)N2c2ccc(C)cc2)ccc1O (stereo not drawn) | 10.4
C=CCNC(=S)/N=c1/ccccn1C | 3.83
CC(C)c1ccc(N2C(=O)NC(=O)/C(=C\c3cnc(-c4ccccc4)nc3)C2=O)cc1 | 9.59

Compound | hERG current change (%, negative = inhibition) at 1uM [%]
Cc1[nH]c(=O)[nH]c(=O)c1CSc1nnc(CCCCCNC(=O)OC(C)(C)C)o1 | 6.66
CCOC(=O)c1c(C)[nH]c(C(=O)OCC(=O)c2c(N)n(C)c(=O)n(C)c2=O)c1C | 10.4
c1coc(-c2nnc3sc(-c4cccs4)nn23)c1 | 11.4
Cc1ccnc(N/C=C(/NC(=O)c2ccccc2)C(=O)N/N=C\c2ccc(F)cc2)n1 | -0.855
O=C(CC1NCCNC1=O)Nc1cc(Cl)cc(Cl)c1 (stereo not drawn) | 12.9
COc1ccc(N2CCN(c3cc(=O)n(Cc4ccc(F)cc4)c(=O)[nH]3)CC2)cc1 | 3.3
Cc1ccc(NC(C)c2cc(Cl)ccc2O)cc1 (stereo not drawn) | 18.7
Cc1cc(C)n(C(=O)c2cccc(S(=O)(=O)N3CCCC3)c2)n1 | 7.89
COc1cc2c(=O)n(CCC(=O)NCC3CCCO3)c(=O)n(CC(=O)Nc3ccc(F)cc3)c2cc1OC (stereo not drawn) | 10.8
COc1cc(C(=O)NCc2cc3ccccc3n2C)cc(OC)c1OC | 12.6
CCCc1cc(C(=O)N2CCCN(C)CC2)cs1 | 15.9
COc1ccc(CNC(=O)COC(=O)CC2CC3CCC2C3)cc1OC (stereo not drawn) | 6.66
COc1ccc(C(=O)N2CCCC(C(=O)O)C2)c2ccccc12 (stereo not drawn) | 17.4
CCCc1nc2n[nH]c(N)c2c2c1CCCC2 | 8.61
CCOC(=O)c1c(C)c(C(=O)NCc2ccc3c(c2)OCO3)c(C)n1C | 2.09
Cc1cc(C)cc(OCC(=O)N/N=C/c2ccccn2)c1 | 5.76
COc1ccc(C(=O)Oc2coc(CSc3nnc(NC(=O)c4cccs4)s3)cc2=O)cc1 | 12.8
Cc1cc(NC(=O)CSc2nnc(-c3ccc(O)cc3)o2)no1 | 7.14
CC(c1ccccc1F)n1cc(C(=O)Nc2ccc3nc[nH]c3c2)nn1 (stereo not drawn) | 9.42

Compound | hERG current change (%, negative = inhibition) at 1uM [%]
Cc1ccc2nc(NCc3ccccc3)c(C=NCc3cccnc3)c(=O)n2c1 | 12.1
Cc1ccc(Nc2c(-c3ccccc3O)nc3cnccn23)cc1 | 8.71
CCCN(C(=O)c1cc(S(=O)(=O)N2CCCCCC2)ccc1OC)C1CCS(=O)(=O)C1 (stereo not drawn) | 2.79
Clc1ccc2nc(N3CCN(c4ccccc4)CC3)sc2c1 | 13.3
Cc1ccc(C)c(N(C)C(=O)c2coc(=O)c3ccccc23)c1 | -8.53
O=C(NNC(=S)Nc1ccccc1)C1CC1 | -1.62
CCOc1ccc(N(Cc2nnc3n2CCCCC3)C(=O)Nc2cccc(C)c2)cc1 | 4.32
Cc1nc2cc(-c3cccc(F)c3)nn2c(C)c1CCC(=O)N1CCC2(CC1)OCCO2 | -17.6
COc1ccc(N2CCC(CNC(=O)Nc3cccc(OC)c3)C2)cc1 (stereo not drawn) | -2.65
CN(C)/C=C(\C#N)C(=O)c1cccnc1Oc1cccc(F)c1 | 0.839
Cc1ccc(SCCNC(=O)CN(c2ccc3c(c2)OCO3)S(C)(=O)=O)cc1 | -4.28
O=C(c1cc2ccccc2cc1O)N1CCCC1 | 16.9
CCSc1ccccc1C(=O)Nc1ccc2c(c1)OCO2 | 17.9
CN(C)C1(CNC(=O)C2CCN(S(=O)(=O)c3ccccc3C(F)(F)F)CC2)CCCCC1 | -5.31
O=C(Cn1cnc2ccccc2c1=O)NCCC(=O)N1CCN(Cc2ccccc2)CC1 | 10.1
Cc1cc(=O)[nH]c(-c2ccc(C(F)(F)F)cc2)n1 | 2.88
Cc1c(NC(C)C)c(=O)n(-c2ccccc2)n1C.Cl | 9.52
O=C(c1ccc(NS(=O)(=O)c2cccc(C(F)(F)F)c2)cc1)N1CCCC1 | -4.22
CC1CCN(C(=O)CSc2nc3[nH]ncc3c(=O)[nH]2)CC1 | 16.3
